The campaign covered roughly 110,000 compounds. About 40 (0.04%) were called active. Inconclusive results, whose numbers are uncertain, are shown with a selection of clear calls. The call rests on the fitted dose curve; in most records, active means well fitted curve in the direction sought with a large enough effect in the signal ratio (not every such curve was filed as active); inconclusive means small, poorly fitted or top-dose-only effect, or a change in a side signal; inactive means flat fitted curve, though single readings scatter; the % refers to the signal ratio. Where the call is inconclusive, the potency comes from a doubtful curve fit.
Test: IkB Signaling;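 on IkBa stabilization activation: 0% = basal untreated cells and 100% = reference inhibitor full response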
Conditions: ABC-DLBCL IkBa-CBG/CBR dual luciferase ratio (green luciferase fused to IkBa over red control in OCI-Ly3 lymphoma cells), 4 h; IkBa stabilization activation: at 57.1 µM (top of the series), scaled: untreated 0%, proteasome inhibitor 100% unless noted
Summary of the method: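 In this assay, an IκBα–CBG68 fusion accumulates when IKK-driven degradation is blocked; native CBR normalizes for cell number. OCI-Ly3 cells were treated 4 h with compound and doxycycline, then green and red light read after Chroma-Glo addition.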
Potency means the concentration at half of the fitted maximal effect.

Compound | Potency | IkBa stabilization activation
C=CCc1cccc2cc(-c3nc4ccc(C(=O)O)cc4[nH]3)c(=O)oc12 | inconclusive: 3.98 µM [signal inhibitor, full curve] | –
O=C(CC(=O)Nc1ccccn1)Nc1ccccn1 | – | inactive
N#Cc1c2c(c(N3CCN(c4ccccn4)CC3)n3c1nc1ccccc13)CCC2 | – | inactive
CCOC(=O)c1cc(S(=O)(=O)Nc2c(C)cc(C)cc2C)[nH]n1 | – | inconclusive: -0.463% [signal inhibitor]
COc1ccc(C)cc1Nc1cc(C)nc2nc(C)nn12 | – | inactive
COc1ccc2cc(CN(C(=O)Nc3ccccc3OC)C3CCCC3)c(=O)[nH]c2c1 | – | inconclusive: 3.82% [signal inhibitor]
O=C(NCCN1C(=O)C2C3C=CC(C3)C2C1=O)Nc1ccc(Br)cc1 (stereo not given) | – | inactive
CC(=O)NC(C)c1nc2ccccc2n1Cc1ccccc1Cl (stereo not given) | – | inconclusive: 0.645% [signal inhibitor]
CCOC(=O)N1CCN(c2ncc3c(n2)CC(c2ccc(Cl)cc2)CC3=O)CC1 (stereo not given) | – | inconclusive: 0.926% [signal inhibitor]
CCOc1ccc2nc(N3CCCC(C(=O)N4CCN(CC)CC4)C3)sc2c1 (stereo not given) | – | inactive
COc1ccc(C2C(C(=O)Nc3cccnc3)=C(C)Nc3nc(SCc4ccccc4)nn32)cc1 (stereo not given) | – | inactive
Cc1ccc(C)c(NC(=O)C2CCCN2S(=O)(=O)c2ccc3c(c2)n(C)c(=O)c(=O)n3C)c1 (stereo not given) | – | inconclusive: 1.01% [signal inhibitor]
Cc1ccc(-c2noc(CN(C(=O)CCCCCN3C(=O)c4ccccc4C3=O)C(C)C)n2)cc1 | – | inconclusive: -2.01% [signal inhibitor]
CCOC(=O)CCCCN(Cc1ccccc1F)S(=O)(=O)c1ccc(F)c(C(=O)Nc2cc(Cl)cc(Cl)c2)c1 | – | inconclusive: 2.09% [signal inhibitor]
COc1cc(-c2noc(-c3ccc(NC4CCCC4)c([N+](=O)[O-])c3)n2)cc(OC)c1OC | – | inconclusive: -0.277% [signal inhibitor]
O=C(NCc1ccc(F)cc1)c1nnc(Cc2cccc(F)c2)o1 | – | inconclusive: -0.369% [signal inhibitor]
CC(C)c1ccc(NC(=O)c2cnc3sc(N4CCCC4)nn3c2=O)cc1 | – | inconclusive: 6.13% [signal inhibitor]
COCCOC(=O)c1c(C)oc2ccc(OC(=O)c3ccc4c(c3)OCO4)cc12 | – | inconclusive: -1.14% [signal inhibitor]
COC(=O)c1ccccc1NC(=O)COC(=O)c1ccco1 | – | inactive
CCOC(=O)c1ccc(NC(=O)CC2C(=O)N(c3cccc(C)c3)C(=O)N2CCOC)cc1 (stereo not given) | – | inconclusive: 0.658% [signal inhibitor]
